Common to all, as to test: cell count relative to DMSO control; melanoma cells; higher = more viable cells
One experiment relates to 501Mel. To be noted: library dose: standard library concentration; 72 h.
The test system of a further experiment is A101D. The settings on record: library dose: standard library concentration; 72 h.
A further experiment has as its system A2058. To be noted: library dose: standard library concentration; 72 h.
A further experiment concerns A375. The settings on record: library dose: standard library concentration; 72 h.
The next experiment deals with MeWo. To be noted: library dose: low library concentration; 72 h.
The test system of a further experiment is RPMI7951. To be noted: library dose: low library concentration; 72 h.
In a further experiment the test system is RVH-421. The settings on record: library dose: low library concentration; 72 h.
In a further experiment the test system is SkMel28. To be noted: library dose: low library concentration; 72 h.
For a further experiment, the system named is SkMel30. The settings on record: library dose: low library concentration; 72 h.
For a further experiment, the system named is SkMel5. To be noted: library dose: low library concentration; 72 h.
A further experiment deals with UACC257. The settings on record: library dose: low library concentration; 72 h.
The next experiment concerns UACC62. The settings on record: library dose: low library concentration; 72 h.
Another experiment concerns WM115. To be noted: library dose: low library concentration; 72 h.
The next experiment has as its system WM1716. The settings on record: library dose: low library concentration; 72 h.
Another experiment deals with WM1745. To be noted: library dose: low library concentration; 72 h.
Another experiment relates to WM3526. The settings on record: library dose: low library concentration; 72 h.
The next experiment relates to WM3619. The settings on record: library dose: low library concentration; 72 h.
The test system of a further experiment is WM451Lu. The settings on record: library dose: low library concentration; 72 h.
The subject of a further experiment is MZ2-MEL. The settings on record: library dose: low library concentration; 72 h.

The list shows a part of the results. Many values rest on one well or one pass, so single values are uncertain.

`O=c1[nH]nc(Sc2ncc([N+](=O)[O-])s2)n1-c1ccc2c(c1)OCCO2` + CCCCCCCCCCCC1=C(O)C(=O)C=C(O)C1=O [Embelin] (first compound 1 µM, partner dose 6 µM): the cell count amounted to 94.5% in the experiment with 501Mel, 80.1% with A101D, 90.1% in the experiment with A2058 and 72.7% in the experiment with A375.
Regarding `O=c1[nH]nc(Sc2ncc([N+](=O)[O-])s2)n1-c1ccc2c(c1)OCCO2` + Cc1cc([N+](=O)[O-])ccc1NS(=O)(=O)c1cc(Cl)ccc1Cl [FH535] (first compound 0.2 µM, partner dose 1 µM), the cell count came to 97.8% in the experiment on MeWo; 102% in the experiment on RPMI7951; 87.5% in the experiment on RVH-421; 96.2% in the experiment with SkMel28; 91.5% with SkMel30; 94.7% with SkMel5. Also, the cell count in the experiment on UACC257 came out at 107%; in the experiment on UACC62 it was 98%; in the experiment with WM115, 94.6%; with WM1716 it was 99.5%; in the experiment with WM1745, 93.4%; with WM3526 it was 81.5%. In addition, the results for the cell count in the experiment with WM3619 and in the experiment on WM451Lu were 126% and 91.5%, respectively.
In the case of `COc1cc(Nc2ncc(F)c(Nc3ccc4c(n3)NC(=O)C(C)(C)O4)n2)cc(OC)c1OC` [Tamatinib] + COC(=O)c1sccc1S(=O)(=O)Nc1ccc(Nc2ccccc2)cc1OC [GSK0660] (first compound 2 µM, partner dose 5 µM), the cell count in the experiment on 501Mel came to 98.7%; with A101D, 68.2%; with A2058, 86.8%; in the experiment on A375, 109%.
For the molecule `O=C(O)c1ccc(-c2c[nH]c3ncc(-c4ccccc4)cc23)cc1C1CCCC1` + O=c1cc(-c2cccc3c2Sc2ccccc2S3)oc(N2CCOCC2)c1 [KU55933] (first compound 0.8 µM, partner dose 5 µM), the cell count with 501Mel is 99.6%; in the experiment on A101D, 84.2%; in the experiment with A2058, 87.5%; with A375, 111%.
The like results for `O=C(Nc1cccc(Cl)c1)Nc1ncc(CCNc2ncnc3ccsc23)s1` + COc1cc2ncnc(Nc3ccc(Oc4ccccc4)cc3)c2cc1OC [SrcI1] (first compound 0.004 µM, partner dose 10 µM) were, in that order, 67.2%, 71%, 88.7% and 120%.
Consider `Cn1cncc1[C@@](N)(c1ccc(Cl)cc1)c1ccc2c(c1)c(-c1cccc(Cl)c1)cc(=O)n2C` [tipifarnib] + COc1ccc(COc2ccc(Cc3cnc(N)nc3N)cc2OC)cc1 [GW2580] (first compound 0.01 µM, partner dose 1 µM), for which the cell count was 95% in the experiment with MZ2-MEL; 92.8% in the experiment on MeWo; 87% in the experiment with RPMI7951; 80.1% in the experiment on RVH-421; 88.7% with SkMel28; 80.1% in the experiment on SkMel30. Further, the cell count in the experiment with SkMel5 was 102%; with UACC257 it was 85.6%; in the experiment on UACC62 it was 73.3%; with WM115, 83.9%; in the experiment with WM1716, 78.6%; with WM1745 it was 87%. Also, the cell count in the experiment with WM3526 came to 91.7%; in the experiment on WM3619 it was 96%; in the experiment on WM451Lu, 82.5%.
Take `O=C(O)c1ccc(-c2c[nH]c3ncc(-c4ccccc4)cc23)cc1C1CCCC1` + Oc1cc(-c2nc(-c3ccccc3)[nH]c2-c2ccncc2)ccc1Cl [L779450] (first compound 0.8 µM, partner dose 1 µM): the cell count was found to be 70.5% with 501Mel, 65.8% in the experiment with A101D, 93.5% with A2058 and 79% in the experiment with A375.
On to `COc1cc(Nc2ncc(F)c(Nc3ccc4c(n3)NC(=O)C(C)(C)O4)n2)cc(OC)c1OC` [Tamatinib] + O=C(Nc1ccccc1)c1cc([N+](=O)[O-])ccc1Cl [GW9662] (first compound 0.4 µM, partner dose 2 µM), for which the cell count in the experiment with MZ2-MEL is 86.5%; in the experiment with MeWo it was 96.5%; in the experiment on RPMI7951 it was 98.8%; in the experiment on RVH-421, 99.3%; with SkMel28, 77.6%; in the experiment with SkMel30, 76.7%. Further, the cell count in the experiment on SkMel5 worked out at 84.1%; in the experiment with UACC257, 76%; in the experiment on UACC62, 90.2%; in the experiment with WM115, 90.7%; in the experiment with WM1716, 94.8%; with WM1745 it was 53.3%. Further, the cell count was found to be 95.9% in the experiment on WM3526, 79.2% with WM3619 and 111% with WM451Lu.
As for `C[C@@H]1CCN(C(=O)CC#N)C[C@@H]1N(C)c1ncnc2[nH]ccc12` + COc1ccc(-c2ccc3c(N4CCOCC4)nc(N4C[C@@H](C)O[C@@H](C)C4)nc3n2)cc1CO [KU0063794] (first compound 5 µM, partner dose 0.1 µM), the cell count in the experiment on 501Mel came to 82.2%; with A101D it was 104%; in the experiment with A2058, 94.5%; with A375 it was 101%.
In the same order, the values of `CC1(C)NC(=O)N(c2ccc([N+](=O)[O-])c(C(F)(F)F)c2)C1=O` [nilutamide] + Cn1cc(/C=C2\C(=O)Nc3cccnc32)c2ccccc21 [GW441756] (first compound 5 µM, partner dose 2 µM) are 91.2%, 95.7%, 116% and 141%.
The like results for `O=C(Nc1cccc(Cl)c1)Nc1ncc(CCNc2ncnc3ccsc23)s1` + CC(C)CCN1c2nc(Nc3cc(F)c(O)c(F)c3)ncc2N(C)C(=O)C1C [BID1870] (first compound 0.004 µM, partner dose 1 µM) were, in that order, 76.1%, 62.1%, 52.9% and 65.7%.
Regarding `CC1(C)NC(=O)N(c2ccc([N+](=O)[O-])c(C(F)(F)F)c2)C1=O` [nilutamide] + O=C1NC(=O)/C(=C/c2ccc(-c3ccc(F)cc3O)o2)S1 [AS252424] (first compound 5 µM, partner dose 5 µM), the cell count was found to be 70.1% in the experiment on 501Mel, 103% in the experiment with A101D, 91.4% in the experiment with A2058 and 118% in the experiment on A375.
`O=c1[nH]nc(Sc2ncc([N+](=O)[O-])s2)n1-c1ccc2c(c1)OCCO2` + COc1cc2ncnc(Nc3ccc(Oc4ccccc4)cc3)c2cc1OC [SrcI1] (first compound 1 µM, partner dose 10 µM): the cell count worked out at 90.6% in the experiment with 501Mel, 52.2% with A101D, 82.5% with A2058 and 111% in the experiment on A375.
The like results for `COc1cc(Nc2ncc(F)c(Nc3ccc4c(n3)NC(=O)C(C)(C)O4)n2)cc(OC)c1OC` [Tamatinib] + O=S(=O)(c1ccccc1)N(CC(F)(F)F)c1ccc(C(O)(C(F)(F)F)C(F)(F)F)cc1 [T0901317] (first compound 2 µM, partner dose 7 µM) were, in that order, 62.7%, 32.7%, 80.2% and 88.8%.
In the same order, the values of `CC1(C)NC(=O)N(c2ccc([N+](=O)[O-])c(C(F)(F)F)c2)C1=O` [nilutamide] + Cc1cc([N+](=O)[O-])ccc1NS(=O)(=O)c1cc(Cl)ccc1Cl [FH535] (first compound 5 µM, partner dose 5 µM) are 62.9%, 75.5%, 86.7% and 65.1%.
In the same order, the values of `COc1cc(Nc2ncc(F)c(Nc3ccc4c(n3)NC(=O)C(C)(C)O4)n2)cc(OC)c1OC` [Tamatinib] + Oc1cc(-c2nc(-c3ccccc3)[nH]c2-c2ccncc2)ccc1Cl [L779450] (first compound 2 µM, partner dose 1 µM) are 61.8%, 43.4%, 50.3% and 72.5%.

Values taken from the supplement of paper PMC4604168 (melanoma cell lines).
